The whole screen tested about 310,000 compounds, of which about 14,000 (4.5%) showed an effect of 50% or more. The effect is printed as a negative number. Some of the results follow.
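Also: peak tail current of the secondary pulse compared with the same well before compound.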

The target in this assay is human ether-à-go-go-related gene (hERG) potassium channel (human, UniProt Q12809). Put plainly: primary screen, population patch clamp on CHO cells stably expressing hERG.
human ether-à-go-go-related gene (hERG) potassium channel, sequence (Q12809 whole entry, looked up): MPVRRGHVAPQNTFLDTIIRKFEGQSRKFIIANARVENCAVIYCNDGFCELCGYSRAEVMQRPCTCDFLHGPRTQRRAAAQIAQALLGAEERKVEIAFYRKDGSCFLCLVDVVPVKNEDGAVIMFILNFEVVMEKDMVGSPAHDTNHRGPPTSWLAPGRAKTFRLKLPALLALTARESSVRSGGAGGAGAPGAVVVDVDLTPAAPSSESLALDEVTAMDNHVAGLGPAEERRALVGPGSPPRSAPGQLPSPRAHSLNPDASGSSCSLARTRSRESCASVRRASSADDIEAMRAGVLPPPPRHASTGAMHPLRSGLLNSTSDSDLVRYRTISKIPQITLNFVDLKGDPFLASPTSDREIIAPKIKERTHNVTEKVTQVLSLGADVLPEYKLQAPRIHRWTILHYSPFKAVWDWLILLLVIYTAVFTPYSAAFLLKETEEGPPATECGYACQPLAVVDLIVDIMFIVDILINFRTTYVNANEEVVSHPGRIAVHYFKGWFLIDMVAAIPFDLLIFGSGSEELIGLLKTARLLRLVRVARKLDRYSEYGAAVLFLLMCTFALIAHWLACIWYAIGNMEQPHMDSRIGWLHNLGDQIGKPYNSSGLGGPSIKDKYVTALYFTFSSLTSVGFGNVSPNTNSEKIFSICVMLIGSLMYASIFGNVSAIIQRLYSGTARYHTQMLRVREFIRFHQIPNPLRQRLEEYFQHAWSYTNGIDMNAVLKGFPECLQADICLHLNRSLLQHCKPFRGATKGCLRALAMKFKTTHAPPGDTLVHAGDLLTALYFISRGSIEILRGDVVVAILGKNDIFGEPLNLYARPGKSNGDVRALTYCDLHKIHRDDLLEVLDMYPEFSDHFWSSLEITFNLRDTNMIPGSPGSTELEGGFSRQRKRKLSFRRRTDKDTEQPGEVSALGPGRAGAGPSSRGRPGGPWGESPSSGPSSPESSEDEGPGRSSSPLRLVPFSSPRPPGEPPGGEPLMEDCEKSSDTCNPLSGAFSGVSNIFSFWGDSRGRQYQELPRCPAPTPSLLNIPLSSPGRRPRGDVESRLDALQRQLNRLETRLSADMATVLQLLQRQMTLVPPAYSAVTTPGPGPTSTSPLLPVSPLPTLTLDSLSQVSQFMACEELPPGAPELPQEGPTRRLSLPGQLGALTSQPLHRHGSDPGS
For `O=C(CCCC1=NS(=O)(=O)c2ccccc2N1)Nc1ccccc1`, the “hERG current change (%, negative = inhibition) at 10uM” value was -2.06%.
As for `Cc1ccccc1-c1noc(CCC(=O)NC2CCCCC2)n1`, the “hERG current change (%, negative = inhibition) at 10uM” value is -8.36%.
`COc1ccc(/C=N/NC(=O)c2ccc(NC(=O)c3cccc([N+](=O)[O-])c3)cc2)c(C(=O)O)c1OC`: the “hERG current change (%, negative = inhibition) at 10uM” value was 7.45%.
As for `O=C(COC(=O)c1ccc([N+](=O)[O-])o1)Nc1cccc(S(=O)(=O)N2CCCCC2)c1`, the “hERG current change (%, negative = inhibition) at 10uM” value is -56.6%.
With `O=C(NC1CCCCC1)Sc1ccc(Cl)cc1`, the “hERG current change (%, negative = inhibition) at 10uM” value was found to be 11.3%.
`CC1CCc2cc(F)cc3c(O)c(C(=O)NCC4CCCO4)c(=O)n1c23` (stereo not drawn): the “hERG current change (%, negative = inhibition) at 10uM” value was -13.4%.
With `CCN1CCN(C(=S)Nc2ccc(Cl)c(Cl)c2)CC1`, the “hERG current change (%, negative = inhibition) at 10uM” value is recorded as -24.5%.
Regarding `CCOC(=O)c1c(/N=C/N(C)C)sc(/C=N/Nc2ccccc2)c1-c1ccccc1`, the “hERG current change (%, negative = inhibition) at 10uM” value was 2.35%.
As for `COC(=O)CSc1nnc2n(C3CCCCC3)c(=O)c3c4c(sc3n12)CCCC4`, the “hERG current change (%, negative = inhibition) at 10uM” value is -18.5%.
As for `COc1ccc(C(=O)Nc2ccc3nc(C)sc3c2)cc1OC`, the “hERG current change (%, negative = inhibition) at 10uM” value stood at 8.62%.
The value for `O=S1(=O)CCN2C(Cc3ccc(SC(F)F)cc3)=CSC2=N1` was -20.2%; that for `O=C(c1cccc(NS(=O)(=O)c2ccccc2)c1)N1CCN(c2ccccc2)CC1` was -9.01%.
As to `Cc1ccc(C(=O)N/C(=C\c2ccccc2)C(=O)NCCCn2ccnc2)cc1`, the “hERG current change (%, negative = inhibition) at 10uM” value is -84.8%.
Take `CN(C1CCCCC1)S(=O)(=O)c1cn(C)c(=O)n(C)c1=O`: the “hERG current change (%, negative = inhibition) at 10uM” value is recorded as 4.74%.
As to `C=CCn1c(Cc2csc(N)n2)nnc1SCC(=O)Nc1ccc(C(=O)OCC)cc1`, the “hERG current change (%, negative = inhibition) at 10uM” value is listed as -15.1%.
On to `CC(/C=C/c1ccccc1F)=N\NC(=O)c1ccccc1`, for which the “hERG current change (%, negative = inhibition) at 10uM” value is -15.3%.
As to `O=C1CC(c2ccc(O)cc2)Oc2cc(O)ccc21` (stereo not drawn), the “hERG current change (%, negative = inhibition) at 10uM” value is 9.31%.
For `COc1ccc(-c2nnn(CC(=O)c3c[nH]c4ccccc34)n2)cc1OC`, the “hERG current change (%, negative = inhibition) at 10uM” value is given as 5.53%.
As for `COc1ccc(NC(=S)NC(=O)C2CCCCC2)cc1`, the “hERG current change (%, negative = inhibition) at 10uM” value is recorded as 0.986%.
As for `O=C(Nc1cc(Br)ccc1O)c1cc(-c2ccc3c(c2)OCO3)on1`, the figure is -4.2%; as for `Oc1ccc(/C=N/n2c3ccccc3c3ccccc32)cc1`, -8.87%; as for `CCCCOC(=O)/C=C\C(=O)NC(N)=O`, 11.6%.
For the compound `Cc1ccc(C2(c3ccc(C)cc3)NC(=O)N(Cc3c(C)noc3C)C2=O)cc1`, the “hERG current change (%, negative = inhibition) at 10uM” value is -18.5%.
For the compound `CCOc1ccc(N(C(C)=O)c2nc(C)cc(C)c2C#N)cc1`, the “hERG current change (%, negative = inhibition) at 10uM” value is 4.68%.
Consider `CC(C)Oc1ccccc1/C=N/NC(=O)c1ccc(F)cc1`, for which the “hERG current change (%, negative = inhibition) at 10uM” value was -14.8%.
As for `O=C(CNS(=O)(=O)c1ccccc1)N1CCN(Cc2ccccc2)CC1`, the figure is 5.89%.
On to `Cc1ccc(/C=C/C(=O)NC(=S)Nc2ccc(S(=O)(=O)Nc3cc(C)on3)cc2)cc1`, for which the “hERG current change (%, negative = inhibition) at 10uM” value is reported as 9.42%.
The value for `O=C1C=C(c2cc(C(F)(F)F)cc(C(F)(F)F)c2)C[C@@H](c2ccc3c(c2)OCO3)C1` was 10.3%.
Regarding `CC(C)Cc1nnc(NC(=O)c2cccc(S(=O)(=O)N3CCN(C)CC3)c2)s1`, the “hERG current change (%, negative = inhibition) at 10uM” value is given as -1.1%.
In the case of `c1ccc(-c2cc(N3CCCCC3)c3ccccc3n2)cc1`, the “hERG current change (%, negative = inhibition) at 10uM” value is listed as 6.1%.
Regarding `Cc1sc2nc(CN3CCN(c4ccc(O)cc4)CC3)[nH]c(=O)c2c1C`, the “hERG current change (%, negative = inhibition) at 10uM” value turned out to be 14.4%.
`O=C(CSc1ccsc1[N+](=O)[O-])NCCc1ccccc1`: the “hERG current change (%, negative = inhibition) at 10uM” value is given as 2.6%.
`COCCn1c(=NC(=O)C2COc3ccccc3O2)sc2cc(S(N)(=O)=O)ccc21` (stereo not drawn): the “hERG current change (%, negative = inhibition) at 10uM” value is listed as -15%.
Regarding `COc1ccc2ccccc2c1/C=N/NC(=O)c1ccc([N+](=O)[O-])cc1`, the “hERG current change (%, negative = inhibition) at 10uM” value came out at 24.5%.
For the compound `O=C(C(Cl)c1ccccc1)N1CCOCC1` (stereo not drawn), the “hERG current change (%, negative = inhibition) at 10uM” value is listed as 18.7%.
The value for `Cc1ccc(C)c(S(=O)(=O)N2CCN(C(=O)C3CCN(C(=O)c4ccc(F)cc4)CC3)CC2)c1` was -30.6%; that for `c1ccc(CCNc2cnccn2)cc1` was 21.2%; that for `O=C(CNc1ccccc1)c1ccc([N+](=O)[O-])cc1` was 4.43%.
For `Cc1cc(C)c2nc3nc(C)cc(C)c3c(N)c2c1`, the “hERG current change (%, negative = inhibition) at 10uM” value is listed as -65.5%.
With `CCc1cccc(NC(=O)CCCCCC2NC(=O)NC2C)c1` (stereo not drawn), the “hERG current change (%, negative = inhibition) at 10uM” value amounted to 9.76%.
The value for `COc1cc(CN2CCN(C(O)(c3ccccc3)c3ccccc3)CC2)cc(OC)c1OC.O=C(O)C(=O)O` was -55.1%.
As to `COc1cccc(NC(=S)N2CCCN(Cc3ccc(F)cc3)C2)c1`, the “hERG current change (%, negative = inhibition) at 10uM” value was -42.7%.
Turning to `O/N=C/c1ccc(OCc2ccccc2)c(Cl)c1`, the “hERG current change (%, negative = inhibition) at 10uM” value came out at 5.8%.
Turning to `CCCCCCSc1nc(O)c(C2OC(=O)c3c2ccc(OC)c3OC)c(=O)n1CC` (stereo not drawn), the “hERG current change (%, negative = inhibition) at 10uM” value turned out to be 5.41%.
For the compound `CCc1c(O)nc(N2CCN(Cc3ccccc3)CC2)[nH]c1=O`, the “hERG current change (%, negative = inhibition) at 10uM” value is listed as 5.8%.
As to `COc1cccc(C2=NCCc3cc4c(cc32)OCO4)c1OC`, the “hERG current change (%, negative = inhibition) at 10uM” value was found to be 2.12%.
As to `CC1(C)CC[C@]2(C(=O)O)CC[C@]3(C)C(=CCC4[C@@]5(C)CC[C@H](O)C(C)(C)C5CC[C@]43C)C2C1` (stereo partly drawn), the “hERG current change (%, negative = inhibition) at 10uM” value amounted to 29.1%.
As for `C=CCN(C(=O)c1ccc2c(c1)nnn2C)c1ccccc1`, the “hERG current change (%, negative = inhibition) at 10uM” value turned out to be 2.1%.
The value for `COc1ccc(CCNC(=O)c2cnc3n(c2=O)CCS3)cc1OC` was -5.87%; that for `Cc1ccc(CNC(=O)C2CC(=O)N(c3ccc(OCC(=O)N4CCCC4)cc3)C2)cc1` (stereo not drawn) was 13.3%.
For the compound `Cc1ccccc1CSCC(=O)NCCSc1ccccn1`, the “hERG current change (%, negative = inhibition) at 10uM” value is reported as -3.24%.
With `CCCC(=O)Nc1cc(-c2nn(C)c(=O)c3ccccc23)ccc1N1CCCCC1`, the “hERG current change (%, negative = inhibition) at 10uM” value is -34.5%.
The value for `O=C(CSCc1ccc(Cl)cc1)Nc1nccs1` was 6.08%; that for `Cc1ccc(S(=O)(=O)N(CCO)c2cc3c(s2)CCCC3)cc1` was -6.05%; that for `CN(C)c1ccc(/C=N/Nc2nncc3ccccc23)cc1` was 15.4%.
The value for `O=C(Nc1ccc(Cl)cn1)c1cccc2c(Br)cccc12` was 4.17%; that for `CCN(CC)S(=O)(=O)c1ccc2c(c1)nc(SCC(=O)N1CCOCC1)n2-c1ccccc1OC` was -31.1%.
For `Cc1ccc(S(=O)(=O)N2CCN(c3ccc(N4CCOCC4)nn3)CC2)cc1[N+](=O)[O-]`, the “hERG current change (%, negative = inhibition) at 10uM” value is reported as -4.74%.
Consider `C=CCN1CCN(C(c2ccccc2OC)c2nnnn2C(C)(C)C)CC1.Cl` (stereo not drawn), for which the “hERG current change (%, negative = inhibition) at 10uM” value is reported as -0.19%.
For the compound `Cc1ccc2nc(-c3ccc(NC(=O)CSCC(=O)O)cc3)sc2c1`, the “hERG current change (%, negative = inhibition) at 10uM” value came to 30.7%.
In the case of `CC(C)N1CC(COc2ccccc2Cl)OC1=O` (stereo not drawn), the “hERG current change (%, negative = inhibition) at 10uM” value is recorded as -2.26%.
As for `CC(C)=C1C2CCC1C1C(=O)N(c3nc(-c4ccc(F)cc4)c(C)s3)C(=O)C21` (stereo not drawn), the figure is -1.44%; as for `O=C(CCNC(=O)c1ccccc1Cl)NCc1cccnc1`, -10.5%.
For `COc1ccc(N(CCCN2C(=O)c3cccc4cccc(c34)C2=O)C(=O)c2cccnc2)cc1`, the “hERG current change (%, negative = inhibition) at 10uM” value is given as -28.7%.
In the case of `Cc1cc(C)cc(C(=O)NCC(=O)OCc2cc([N+](=O)[O-])cc3c2OCOC3)c1`, the “hERG current change (%, negative = inhibition) at 10uM” value is given as -21%.
For the compound `CCC(CC)n1[nH]c(=O)c2c(C)cc(C)nc21`, the “hERG current change (%, negative = inhibition) at 10uM” value is 10.7%.
For the compound `Cc1cccc(CSCCNC(=O)CSCc2ccc([N+](=O)[O-])cc2)c1`, the “hERG current change (%, negative = inhibition) at 10uM” value is on record as -47.8%.
For the compound `COc1ccc(/C=C/C(=O)NC(=S)NNC(=O)[C@H]2C[C@@H]2c2ccccc2)cc1OC`, the “hERG current change (%, negative = inhibition) at 10uM” value amounted to 6.04%.
`O=C(CS(=O)CC(=O)N(CC(=O)NC1CCCC1)c1ccccc1F)Nc1ccc(F)cc1` (stereo not drawn): the “hERG current change (%, negative = inhibition) at 10uM” value is on record as -0.187%.
For the compound `O=C(Nc1cc([N+](=O)[O-])ccc1N1CCCC1)c1ccco1`, the “hERG current change (%, negative = inhibition) at 10uM” value is -34.5%.
As for `O=C1CCCc2c1sc1nc3n(c(=O)c21)CCCCC3`, the figure is 3.11%; as for `Cc1nn(-c2ccccc2)c2[nH]c(=O)cc(C(F)F)c12`, -5.67%.
The value for `COCCN1CCN(C(=O)C2CCC(=O)N(CCc3cccc(F)c3)C2)CC1` (stereo not drawn) was 9.41%.
As for `COc1ccc(NC(=O)c2cccc(N3C(=O)C4C5CCC(C5)C4C3=O)c2)cc1` (stereo not drawn), the figure is 13.9%.
Take `CCOC(=O)N1CCC(NC(=O)CSCc2nc(-c3cccc(OC)c3)oc2C)CC1`: the “hERG current change (%, negative = inhibition) at 10uM” value is listed as -17.6%.
For the compound `Cc1ccc(-c2nc3ccccc3c(=O)n2CCN2CCOCC2)cc1`, the “hERG current change (%, negative = inhibition) at 10uM” value is on record as -12.1%.
The value for `O=C(NCCc1ccc(Cl)cc1)C1CCN(S(=O)(=O)c2ccc(Br)s2)CC1` was -12.8%; that for `O=C(N/N=C1\CC2CC=CC12)c1ccc(O)cc1` (stereo not drawn) was 14.7%.
On to `COCCNC(=O)c1onc(CSc2ccccc2)c1C(=O)NCCOC`, for which the “hERG current change (%, negative = inhibition) at 10uM” value is 7.75%.
Consider `NS(=O)(=O)c1ccc(CNS(=O)(=O)c2ccc3c(c2)OCCO3)cc1`, for which the “hERG current change (%, negative = inhibition) at 10uM” value is 4.28%.
Turning to `CCOC(=O)c1ccc(NC(=O)NNC(=O)CCc2ccc(OC)cc2)cc1`, the “hERG current change (%, negative = inhibition) at 10uM” value is 30.1%.
Regarding `S=c1nc[nH]c2c1cnn2Cc1ccccc1`, the “hERG current change (%, negative = inhibition) at 10uM” value is recorded as 21.8%.
For the compound `O=C(COc1ccc(C(=S)N2CCCC2)cc1)Nc1ccccc1C(F)(F)F`, the “hERG current change (%, negative = inhibition) at 10uM” value is 0.616%.
As to `CC(Sc1nnc(-c2cccs2)n1Cc1ccccc1)C(=O)NCc1ccc2c(c1)OCO2` (stereo not drawn), the “hERG current change (%, negative = inhibition) at 10uM” value is -55.9%.
The value for `N#Cc1c(-c2ccco2)cc(-c2cccnc2)nc1N` was -9.61%; that for `Clc1ccc(N2CCN(c3ncnc4c3oc3ccccc34)CC2)cc1` was 4.58%; that for `O=C(Cc1ccccc1)Nc1ccccc1Sc1ccccc1` was -2.63%.
